In all, about 5,400 compounds went through this assay and about 190 (3.5%) showed an effect of 50% or more. This is one part of the list. Starred links: 1 amine or outer side, 2 acyl side, 3 side chain; linkers in the order of their positions; H or OH if unused. Non-standard residues stand in square brackets, D forms with d. Residues, ends and D or L forms follow the SMILES beside them. Groups on a side chain read outwards from the residue. *: point of attachment. Ethylenediamine = C(CN[*:2])N[*:1]; Hyp = O=C(O)[C@@H]1C[C@@H](O)CN1; Phg = N[C@H](C(=O)O)c1ccccc1; CO = O=C([*:1])[*:2]; Bn = c1ccc(C*)cc1
Tested on: Vero-E6
Assay: primary screen, phospholipidosis by LipidTOX staining; higher = more effect of the substance
Conditions: 10 µM
Outline: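 Drug-induced phospholipidosis detected with HCS LipidTOX Red reagent in Vero-E6 cells. Compounds tested at 10 μM, with amiodarone (10 μM) as positive control and DMSO (0.1 v/v %) as vehicle.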

Compound | result_ITMP
Cc1oc(=O)oc1COC(=O)C1=C([C@H]2CCCO2)S[C@@H]2[C@@H]([C@@H](C)O)C(=O)N12 | -2.76%
CCCc1c(-c2ccc(O)cc2)nn(-c2ccc(O)cc2)c1-c1ccc(O)cc1 | -0.95%
C[C@]12CC[C@@H](O)C[C@@H]1CC[C@@H]1[C@@H]2CC[C@]2(C)C(c3ccccc3)=CC[C@@H]12 | -2.07%
NC(=O)c1ccc2[nH]ccc2c1 | -9.05%
Brc1ccc(NC2C3CC4CC(C3)CC2C4)cc1 (stereo not drawn) | -2.12%
CN(N=O)C(=O)N[C@@H]1[C@@H](O)[C@H](O)[C@@H](CO)O[C@@H]1O | 1.67%
CC(C)(C)Nc1nc(Nc2ccc(C(N)=O)cc2)cc(N)c1C#N | 0.58%
COc1ccc(C2=NC(c3ccc(Cl)cc3)C(c3ccc(Cl)cc3)N2C(=O)N2CCNC(=O)C2)c(OC(C)C)c1 (stereo not drawn) | 20.5%
COc1ccc(-n2nc(C(F)(F)F)cc2-c2ccc(Cl)cc2)cc1 | -1.15%
Nc1ccncc1 | -3.01%
CC(=O)OCC(=O)[C@@]1(O)[C@H](C)CC2C3CCC4=CC(=O)C=C[C@]4(C)[C@@]3(F)[C@@H](O)C[C@@]21C (stereo partly drawn) | -3.79%
NCCCC[C@@H]1NC(=O)[C@@H](Cc2c[nH]c3ccccc23)NC(=O)[C@H](c2ccccc2)NC(=O)[C@@H]2C[C@@H](OC(=O)NCCN)CN2C(=O)[C@H](Cc2ccccc2)NC(=O)[C@H](Cc2ccc(OCc3ccccc3)cc2)NC1=O (cyclo([Hyp]([CO-Ethylenediamine])[Phg][dW]KY(Bn)F)) | 8.97%
COc1ccc(/C=C/C(=O)Nc2ccccc2C(=O)O)cc1OC | -9.61%
CCN(CC)CCNC(=O)c1c(C)[nH]c(/C=C2\C(=O)Nc3ccc(F)cc32)c1C | 6.17%
COc1cc2c(cc1O)C(CCc1ccc(Cl)cc1)N(C)CC2 (stereo not drawn) | 64%
CC(=O)N[C@H]1[C@H]([C@H](O)[C@H](O)CO)OC(C(=O)O)=C[C@@H]1NC(=N)N | -15.8%
CCN(CC)Cc1ccc(C(=O)N(CCc2ccccc2OC)[C@@H]2CCNC2)cc1 | 29.5%
CNC(=N)NC(=O)Nc1c(C)cccc1C | 2.12%
N#Cc1cnc2c(Cl)cc(NCc3cn(CCN4CCCCCC4)nn3)cc2c1Nc1ccc(F)c(Cl)c1 | 2.55%
Oc1ccc(/C=C/c2cc(O)cc(O)c2)cc1 | -2.27%

Compound | result_ITMP
CCOC(=O)Nc1ccc(NCc2c(C)cc(C)cc2C)cc1N | 0.41%
CCOC(=O)Nc1ccc2c(c1)N(C(=O)CN(C)C)c1ccccc1CC2 | -0.84%
COc1ccccc1N1CCN(CCCCN2C(=O)c3ccccc3C2=O)CC1 | -0.85%
O=C(CCCCCCCC(=O)NCCO)NCCO | 2.9%
O=C(O)c1cc(O)c2c(Cl)cc(Cl)cc2n1 | -1.66%
CCOc1cc(OCC)c(C(=O)CCC(=O)O)cc1OCC | 4.58%
CC(=O)Oc1c(C)cc(OCC(O)CNC(C)C)c(C)c1C (stereo not drawn) | 2.08%
N#Cc1cc(NC(=O)C(=O)O)c(Cl)c(NC(=O)C(=O)O)c1 | 2.08%
Nc1c2c(nc3ccccc13)CCCC2O (racemic) | -3.81%
O=C(Nc1ccc(Oc2ccc(Cl)cn2)c(Cl)c1)c1ccccn1 | -3.45%
O=C(/C=C/c1ccc2c(c1)OCO2)N1CCCCC1 | -6.45%
Cc1cccc(C)c1OCC(C)N (stereo not drawn) | 6.94%
Nc1nc(CC(=O)Nc2ccc(CCNC[C@H](O)c3ccccc3)cc2)cs1 | -5.5%
COc1ccccc1OCC(O)CO (stereo not drawn) | -2.18%
CC(C)NCC(O)COc1ccc(CC(N)=O)cc1 (stereo not drawn) [R4A_0002533_001 / SPE_K44993696] | -2.42%
Cc1cc(=O)[nH]c(=S)[nH]1 | -2.87%
Cc1ccc(-c2nn(C(C)(C)CNC(=O)c3ncccc3C)c3ncnc(N)c23)cc1 | 1.04%
CCOc1ccc(Nc2nc(-c3c(C)nc4ccccn34)cs2)cc1 | 3.19%
Cc1cc(I)ccc1Nc1c(C(=O)NOCC2CC2)cc(F)c(F)c1F | -3.74%
Cc1c(C)c(NCC(=O)N(C)C2CCN(Cc3ccc(C(N)=O)cc3)CC2)c(C)c(C)c1N | -0.37%

Compound | result_ITMP
CN(C)CCN1C(=O)c2cccc3cc(NC(N)=O)cc(c23)C1=O | -1.75%
O=P(O)(O)CP(=O)(O)O | 2.58%
Cc1cccc(C)c1NC(=O)c1ccc(N)cc1 | -1.86%
CC(=O)C1=C(O)[C@]2(C)C(=CC1=O)Oc1c(C(C)=O)c(O)c(C)c(O)c12 | -3.21%
CC(=O)N(C)c1cc(-c2ccnc3c(C(=O)c4cccs4)cnn23)ccc1F | -1.48%
COc1ccc(C2(C#N)CCC(C(=O)O)CC2)cc1OC1CCCC1 (stereo not drawn) | 0.09%
C=C1NCC[C@@H](C(=O)O)N1 | 0%
OB1OCc2cc(F)ccc21 | -2.38%
COc1ccc(CCN(C)CCCN2CCc3cc(OC)c(OC)cc3CC2=O)cc1OC | -1.11%
O=C(OCC(O)CO)c1ccccc1Nc1ccnc2cc(Cl)ccc12 (stereo not drawn) | -1.62%
COc1cc(N)c(Cl)cc1C(=O)OCCCN1CCCCC1 | 0.68%
OC(c1ccc(-c2ccc(CN3CCN(Cc4ccncc4)CC3)cc2)c(F)c1)(C(F)(F)F)C(F)(F)F | -1.43%
CO[C@H]1CC=C2CCN3CCC4=C(CC(=O)OC4)[C@]23C1 | -0.32%
CC(C)(O)CC(=O)[O-] | -6.24%
COc1cc2c(N3CCN(C(=O)Nc4ccc(OC(C)C)cc4)CC3)ncnc2cc1OCCCN1CCCCC1 | 23%
NC(=O)c1cn(Cc2c(F)cccc2F)nn1 | -3.93%
Cc1cc(O)c2c(c1)C(=O)c1cccc(O)c1C2=O | -2.68%
OC[C@H]1O[C@@](CO)(O[C@H]2O[C@H](CO)[C@@H](O)[C@H](O)[C@H]2O)[C@@H](O)[C@@H]1O | -5.71%
CC[N+](CC)(CC)CCOc1ccc(/C=C/c2ccccc2)cc1 | 1.51%
CC1=C(C(=O)O)N2C(=O)[C@@H](NC(=O)[C@H](N)C3=CCC=CC3)C2SC1 (stereo partly drawn) | -1.02%
